Assay results from the supplement of paper PMC12217912.
The list shows a part of the results. Sequences were assembled here from the parent chain. Values near 0.05 are background.

B1: TEV protease; numbered along this chain (parent)
chain: MGESLFKGPRDYNPISSSICHLTNESDGHTTSLYGIGFGPFIITNKHLFRRNNGTLVVQSLHGVFKVKDTTTLQQHLVDGRDMIIIRMPKDFPPFPQKLKFREPQREERICLVTTNFQTKSMSSMVSDTSCTFPSGDGIFWKHWIQTKDGQCGSPLVSTRDGFIVGIHSASNFTNTNNYFTSVPKNFMELLTNQEAQQWVSGWRLNADSVLWGGHKVFMVKPEEPFQPVKEATQL

Variants of: B1
Assay: raw area under fraction-flipped curve 0-4 h after induction (AUC4h, not background-subtracted), DNA-recorder readout of cleavage of the substrate (dimensionless); higher = more cleavage of the substrate by the protease variant
Details: temperature: 34 °C; time window: 0-4 h after rhamnose induction
Experimental: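 In vivo DNA recorder in E. coli TOP10(DE3) ΔrhaA at 34 °C. Each TEVp single-site mutant (parent TEVp 0) is paired with a single-site variant of the 7-mer TEVs (canonical ENLYFQ|S). The substrate sits between flexible linkers in a Bxb1-sfGFP-TEVs-SsrA fusion, so cleavage stabilises Bxb1 and speeds flipping of a recombination array, read by NGS. The value is the raw area under the fraction-flipped curve over 0-4 h after rhamnose induction (AUC4h), with ≥20 reads per time point. It is not background-subtracted; inactive controls average about 0.047.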
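Note: Bxb1 expression induced with 0.2% (w/v) L-rhamnose at OD600 near 0.5, cultures sampled hourly, flipped fraction per protease–substrate barcode pair counted by paired-end Illumina sequencing.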

Variant	area with substrate ENLAFQS	area with substrate ENLDFQS	area with substrate ENLEFQS	area with substrate ENLFFQS	area with substrate ENLHFQS	area with substrate ENLIFQS	area with substrate ENLKFQS	area with substrate ENLLFQS	area with substrate ENLNFQS	area with substrate ENLPFQS	area with substrate ENLRFQS	area with substrate ENLSFQS	area with substrate ENLVFQS	area with substrate ENLGFQS	area with substrate ENLMFQS	area with substrate ENLQFQS	area with substrate ENLWFQS	area with substrate ENLCFQS	area with substrate ENLTFQS
P40K	0.0394	0.0669	0.0504	0.137	0.072	0.102	0.0754	0.0556	0.0497	0.0405	0.0795	0.0536	0.0666	–	–	–	–	–	–
P40T	0.0609	0.0564	0.0545	0.094	0.0681	0.0871	0.0806	0.0988	0.0701	0.0651	0.0619	0.0703	0.0854	0.0595	0.0874	0.0719	0.0759	–	–
P40N	0.0572	0.0474	0.0613	0.084	–	0.0721	0.0857	–	0.086	–	0.086	0.0812	–	0.0614	–	–	0.0669	–	–
P40I	0.0633	–	0.0419	0.0762	0.0759	0.0705	0.0776	–	0.0584	0.0596	0.0584	0.0619	0.079	0.118	–	0.0938	–	0.0356	–
P40L	0.0621	0.0587	0.0719	0.0798	0.0654	–	0.0637	0.0799	0.0564	0.0788	0.0743	0.0574	–	0.0641	–	0.0735	0.0683	–	0.0689
P40S	0.0609	0.0802	0.061	0.0892	0.0742	0.0368	0.0797	–	0.0834	0.0629	0.0729	0.0622	–	0.0316	0.0881	0.0898	0.132	0.0806	–
P40F	0.0701	0.0571	0.0603	0.0757	0.0511	0.0839	0.074	–	0.0699	0.0612	0.0882	0.067	0.0804	0.0541	–	–	0.0722	–	–
K46S	0.0655	0.0531	0.0848	0.0731	0.0694	–	0.0651	0.06	0.0657	0.0611	0.0606	0.0807	0.0719	0.075	0.0648	0.0425	–	–	–
G39A	0.0348	0.0447	0.0479	0.0469	0.0354	–	–	–	0.0678	0.0243	0.0383	0.0425	0.0453	0.0377	–	–	–	0.079	–
T31E	0.0679	0.0635	0.0431	0.0773	0.0534	0.07	0.0725	0.0649	0.0676	0.0634	0.0711	–	–	0.0652	–	0.0538	–	–	0.0787
N24Y	0.0632	0.0629	–	0.0747	0.0627	0.0703	–	0.0661	0.0629	0.0788	–	0.0703	0.0843	–	0.073	0.0563	0.0478	–	0.0906
N24Q	0.071	0.0734	0.0617	0.0762	–	0.0649	0.0752	0.0718	0.059	0.0538	–	0.0615	0.0659	0.0905	0.0654	0.0729	–	0.063	–
N24T	0.0679	0.0525	–	0.0722	0.0479	0.0755	0.0706	0.0836	0.0675	–	0.0639	0.0571	0.0696	–	0.0602	0.0638	0.0619	0.0549	–
N24D	0.0519	0.0599	0.0519	0.0628	0.067	–	–	0.0403	0.0611	0.0683	0.0713	0.0498	0.0608	0.0651	0.0619	0.0553	0.0533	0.0619	–
N24W	0.0675	0.0687	0.0663	0.052	0.0712	–	0.0764	0.0543	0.0625	0.0686	0.0499	0.0494	0.0534	–	–	0.0601	0.0767	0.0759	–
N24R	0.0487	0.0664	0.0489	0.0543	0.0626	0.0662	0.0763	0.0607	–	0.0641	0.0734	0.071	0.0674	0.0526	0.0709	0.0495	–	0.0692	0.058
N24C	0.0604	0.0561	–	0.0747	0.0724	0.0783	0.0764	–	0.0603	0.0493	–	0.0596	0.0491	0.0841	–	0.0643	0.0602	–	–
T23P	0.062	0.0461	0.0592	0.0475	0.0513	0.0488	0.044	0.0445	0.0376	0.0295	0.045	0.0459	0.0499	–	–	0.0679	0.0777	0.0423	–
I43R	0.056	0.0494	0.054	0.036	0.0493	0.0582	0.0501	0.0555	0.052	0.0556	0.0276	0.0516	–	–	0.0598	0.0333	0.041	–	–
I43K	0.0532	0.052	–	0.0492	0.0412	0.0653	–	0.0525	0.053	0.0547	0.0452	–	–	–	–	0.051	0.0592	0.0548	–
T30C	0.058	0.0588	0.0642	0.0853	0.0671	0.0959	0.0829	0.0722	0.065	0.0615	0.0293	0.0647	0.0894	0.0661	0.0676	0.0494	0.0672	0.0714	0.0568
T30S	0.0492	0.0637	0.0675	0.083	0.0646	0.079	0.0798	0.0676	0.0588	0.0705	0.0717	0.0648	–	0.0684	0.0594	0.0722	0.0479	–	–
S18C	0.0574	0.0636	0.0894	0.0698	0.0717	0.0796	0.0832	0.0719	0.0654	0.0609	0.0757	0.0654	0.088	–	0.0696	0.0672	0.0625	0.0706	–
